# Measurements reported in the supplement of paper PMC8728848.
# Some of the results follow.
# How the values were obtained:
# Experiment in all cases: glycan array binding signal (z-score within array); higher = stronger binding
# Conditions in all cases: glycan notation: IUPAC condensed, linker removed
# [1] = target: Fuc(a1-3)[Gal(b1-4)]GlcNAc(b1-3)Gal(b1-3)[Fuc(a1-4)]GlcNAc
# Summary of the method: (§1)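 The binding signal is a Z-score computed within each array. Data were drawn from 3228 arrays in the Consortium for Functional Glycomics database, restricted to those with a known protein sequence. Scores were averaged over arrays of the same protein sequence at different concentrations or buffers, and over linkers, and negative values can be taken as non-binding.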
# [2] = target: Fuc(a1-3)[Gal(b1-4)]GlcNAc(b1-3)Gal(b1-4)[Fuc(a1-3)]GlcNAc
# Summary of the method: as §1
# [3] = target: Fuc(a1-3)[Gal(b1-4)]GlcNAc(b1-3)Gal(b1-4)[Fuc(a1-3)]GlcNAc(b1-3)Gal(b1-4)[Fuc(a1-3)]GlcNAc
# Summary of the method: as §1
# [4] = target: Fuc(a1-3)[Gal(b1-4)]GlcNAc(b1-3)GalNAc
# Summary of the method: as §1
# [5] = target: Fuc(a1-3)[Gal(b1-4)]GlcNAc(b1-6)GalNAc
# Summary of the method: as §1
# [6] = target: Fuc(a1-3)[Gal(b1-4)]GlcNAc(b1-6)[Gal(b1-3)GlcNAc(b1-3)]Gal(b1-4)Glc
# Summary of the method: as §1
# [7] = target: Fuc(a1-3)[Gal(b1-4)]GlcNAc6S
# Summary of the method: as §1
# [8] = target: Fuc(a1-3)[Gal3S(b1-4)]Glc
# Summary of the method: as §1
# [9] = target: Fuc(a1-3)[Gal3S(b1-4)]GlcNAc
# Summary of the method: as §1
# [10] = target: Fuc(a1-3)[Gal3S(b1-4)]GlcNAc6S
# Summary of the method: as §1
# [11] = target: Fuc(a1-3)[GalNAc(b1-4)]GlcNAc
# Summary of the method: as §1
# [12] = target: Fuc(a1-3)[GalNAc(b1-4)]GlcNAc6S
# Summary of the method: as §1
# Fuc(a1-4)GlcNAc = target: Fuc(a1-4)GlcNAc
# Summary of the method: as §1
# Fuc(b1-3)GlcNAc = target: Fuc(b1-3)GlcNAc
# Summary of the method: as §1
# Gal(a1-2)Gal = target: Gal(a1-2)Gal
# Summary of the method: as §1
# Gal(a1-3)Gal = target: Gal(a1-3)Gal
# Summary of the method: as §1
# Gal(a1-3)Gal(b1-3)GlcNAc = target: Gal(a1-3)Gal(b1-3)GlcNAc
# Summary of the method: as §1
# [13] = target: Gal(a1-3)Gal(b1-3)GlcNAc(b1-2)Man
# Summary of the method: as §1
# [14] = target: Gal(a1-3)Gal(b1-3)GlcNAc(b1-2)Man(a1-3)[Gal(a1-3)Gal(b1-3)GlcNAc(b1-2)Man(a1-6)]Man(b1-4)GlcNAc(b1-4)GlcNAc
# Summary of the method: as §1
# [15] = target: Gal(a1-3)Gal(b1-3)GlcNAc(b1-3)GalNAc
# Summary of the method: as §1
# [16] = target: Gal(a1-3)Gal(b1-3)GlcNAc(b1-6)GalNAc
# Summary of the method: as §1
# [17] = target: Gal(a1-3)Gal(b1-3)[Fuc(a1-4)]GlcNAc(b1-2)Man(a1-3)[Gal(a1-3)Gal(b1-3)[Fuc(a1-4)]GlcNAc(b1-2)Man(a1-6)]Man(b1-4)GlcNAc(b1-4)GlcNAc
# Summary of the method: as §1
# Gal(a1-3)Gal(b1-4)Glc = target: Gal(a1-3)Gal(b1-4)Glc
# Summary of the method: as §1
binder,measurement,setting,value
"Cp ZmpB (Clostridium perfringens), Q0TR08 (protein) MNKRKIAAIILATMITNLSATTIDVLAQELNTKNNSKVEVSHDDESHQARVSKFDLYNSDKLDAYNQEFQVSRSNIKSINNNGGKYNSSTIDKAIDGNLETHWETGKPNDANFTNEVVVTFNEITNIDRIVYSARRDSARGKGFAKEFEIYASLKDEGDDFNLVSSGEYTESTRDLVEIKFNPTDFKRLKFKFKKADQNWASAAEFMFYKEDKLNEKFNGLFTDSSMNKVSEEFNTLEKLNAFENELKDHPIYDLYKEGLNNARAILTETSENPTKATLGQITYNLNDDYNNQYRMPYKNIKAIKNNGRHYAAQNIEKAIDNDVNTYWETGTLNSSSFNNEVEVEFNDLVTLDRIVYGSRQSDLKGFAEEVYIYASRTSKGDTYKLVATGAHEATKGLVEAKFEPTEFKRVKFKFKKSKQNSATLNELMFYKPDEVYSSIPKLFTDGTMSELSEEFNSLEKINAFKEKAKNHPLYNDFNETIELAESLISNPRKEDVLELEMRGDSISEAKKRKVWNFQDWQITGLSARAGDKITVYVDVAEGDPTPTLLYKQSLTQHGGATSFQLKPGKNEITIPEINYESNGIPKDVIQGGDLFFTNYKSDSQKRAPKVRIEGASKYPVFILGKSDENEVMKELEAYVEKIKAEPKTTPNIFAVSSNKSLEFVQATYALDWYKKNNKTPKYTAEQWDQYIADAMGFWGFDNSKDVNSDFNFRIMPMVKNLSGGAFMNAGNGVIGIRPGNQDAILAANKGWGVAHELGHNFDTGGRTIVEVTNNMMPLFFESKYKTKTRITDQNIWENNTYPKVGLDDYSNNELYNKADSTHLAQLAPLWQLYLYDNTFYGKFERQFRERDFGNKNREDIYKSWVVAASDAMELDLTEFFARHGIRVDDKVKEDLAKYPKPDKKIYYLNDLAMNYKGDGFTENAKVSVSTSGSNGNIKLSFSVDDENKDNILGYEIRRDGKYVGFTSNDSFVDTKSNLDEDGVYVVTPYDRKLNTLNPIEVNALQPTLSVNPVITLALGEEFNEEEYIVAKDIKGNSLSESVKVKSSNVNTSKVGEYEVLYSLEDSKGNEYTKTSKVNVVSRKEYMSDLTPKQSSNGWGTVRKDKSISGGVIGLTRDGDFVDYNKGLGLHSNAEYVYDLEGKDYDYFESYVGVDKAMSSRPASSVIFKVLVDGEEKFNSGVMRSTTPQKYVKVDVKNAKELKLIVNDAGDGDSSDHASFGDAKLATLSSKPIIKGENLAYSMDEKVDLMKGITATDIEDGNITSKVQIKSSDFVEGKSGIFTVVYSVTDSDGLTSECSRTIAVTDKETQLSDLNWKSATIGSGSVRKDRAVSGNQIRLLNEDNSVETFAKGIGTHSYSEIVYNSEGYDIFDTWVGIDRHVADKKVSSVKFKVYVDGELKAETDVMRIDTPKKRLVVDVRNSKEIKLVVDVADNGNNWDHADWADAKFRNLAEYDASELNKAIEEAKKLDLNNYTEESSEALKNAISKGEEALLSKDKETINSALEELNKEMNSLVKVDLNAVINIPDKYLLKSIQNQLNKTGDITLGDMYSLTTLTLSGVEDLTGLENAKNLETLNMDYNEVKDLRPLSKLKKLNTLNAQEQFIAAGELKPSNGKVIGDSKVYNREGKNVAKTIRVVDKNGNTILEQDAKDEFTINTKDLSSGLYGVHVLFEDEGFSGVMFYLFNV",glycan array binding signal (z-score),[1],-0.231
same,glycan array binding signal (z-score),[2],-0.294
same,glycan array binding signal (z-score),[3],-0.233
same,glycan array binding signal (z-score),[4],-0.12
same,glycan array binding signal (z-score),[5],-0.181
same,glycan array binding signal (z-score),[6],-0.29
same,glycan array binding signal (z-score),[7],0.068
same,glycan array binding signal (z-score),[8],-0.001
same,glycan array binding signal (z-score),[9],-0.069
same,glycan array binding signal (z-score),[10],-0.404
same,glycan array binding signal (z-score),[11],0.02
same,glycan array binding signal (z-score),[12],-0.027
same,glycan array binding signal (z-score),Fuc(a1-4)GlcNAc,-0.31
same,glycan array binding signal (z-score),Fuc(b1-3)GlcNAc,-0.093
same,glycan array binding signal (z-score),Gal(a1-2)Gal,-0.48
same,glycan array binding signal (z-score),Gal(a1-3)Gal,-0.22
same,glycan array binding signal (z-score),Gal(a1-3)Gal(b1-3)GlcNAc,0.288
same,glycan array binding signal (z-score),[13],0.226
same,glycan array binding signal (z-score),[14],0.14
same,glycan array binding signal (z-score),[15],-0.001
same,glycan array binding signal (z-score),[16],-0.156
same,glycan array binding signal (z-score),[17],-0.141
same,glycan array binding signal (z-score),Gal(a1-3)Gal(b1-4)Glc,-0.084
